Data taken from the supplement of paper PMC3334620.
Over roughly 33,000 sequences, “E-score (-0.5 to 0.5)” has its median near -0.041; the highest 2% begin near 0.37. The list shows a part of the results.

Target: T1, Ecm22 (UniProt Q05958)
T1 sequence: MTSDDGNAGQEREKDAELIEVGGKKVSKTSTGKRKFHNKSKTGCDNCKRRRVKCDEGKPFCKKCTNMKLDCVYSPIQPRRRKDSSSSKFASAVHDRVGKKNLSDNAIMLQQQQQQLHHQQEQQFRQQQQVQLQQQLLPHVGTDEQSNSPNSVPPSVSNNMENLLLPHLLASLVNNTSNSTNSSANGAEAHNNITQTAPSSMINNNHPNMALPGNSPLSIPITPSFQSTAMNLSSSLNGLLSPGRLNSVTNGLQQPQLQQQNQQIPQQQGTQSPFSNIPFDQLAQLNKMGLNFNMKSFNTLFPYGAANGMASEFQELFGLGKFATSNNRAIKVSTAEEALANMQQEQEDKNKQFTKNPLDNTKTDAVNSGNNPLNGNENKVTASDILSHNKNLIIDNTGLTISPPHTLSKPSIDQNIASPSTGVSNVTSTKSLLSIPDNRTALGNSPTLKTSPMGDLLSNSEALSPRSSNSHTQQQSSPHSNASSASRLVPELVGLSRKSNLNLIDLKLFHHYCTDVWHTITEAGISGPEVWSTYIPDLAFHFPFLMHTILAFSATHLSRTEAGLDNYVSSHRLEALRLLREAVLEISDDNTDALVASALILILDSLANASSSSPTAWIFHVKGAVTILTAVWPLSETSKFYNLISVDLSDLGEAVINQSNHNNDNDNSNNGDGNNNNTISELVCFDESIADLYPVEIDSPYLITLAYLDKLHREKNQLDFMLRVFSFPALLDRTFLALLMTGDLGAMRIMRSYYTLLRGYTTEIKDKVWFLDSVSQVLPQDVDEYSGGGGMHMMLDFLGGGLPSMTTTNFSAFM
Assay: PBM E-score (8-mer binding enrichment) (E-score (-0.5 to 0.5)); higher = stronger / more preferred TF binding; most listed sequences are background and not binding sites
Details: protein concentration: 200 nM; construct: GST-full length
Procedure: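 Universal 'all 10-mer' protein binding microarrays (Agilent AMADID 015681) probed with GST-tagged S. cerevisiae TFs (full-length or DBD) made by in vitro transcription/translation (PURExpress), about 100-200 nM. Bound TF was detected with fluorescent anti-GST. Each ungapped 8-mer (which stands for itself and its reverse complement) is scored by the PBM enrichment score (E-score), a modified Wilcoxon-Mann-Whitney statistic from -0.5 to +0.5, computed with the Universal PBM Analysis Suite. Scale: above 0.35 generally sequence-specific binding.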

Sequence	PBM E-score
GGCTTAGA	-0.274
AACTCCAG	-0.154
AATAAGGA	-0.11
ATTTAAAG	-0.126
ACTTCACT	-0.318
AGTTGGCA	-0.0584
GCAATGAA	0.119
GTGATAGA	0.015
GCGGAAGC	0.0467
CAAGCATG	-0.128
CAATTCAA	-0.0186
ACCTTAAT	-0.0853
AATCGGGC	-0.02
CGACGGGC	0.179
CATTCGCG	0.169
CTAACGGC	-0.104
AACTTAGC	-0.215
ACAATCCA	-0.0163
AGATAAAG	-0.0492
ATTTAAAT	-0.00534
GGATTGCC	-0.0306
ACACGAGC	0.275
ATGACTCG	0.0445
ATTTCGGC	0.0899
CCCTTTGC	-0.00471

Sequence	PBM E-score
AGTGTTTA	0.052
CAGCTGCC	-0.256
AGCCAAGA	-0.121
GTCAGTGA	0.0507
TCCGATCA	0.0828
ACATATAT	0.127
CACTACGG	-0.0378
ACGACGGC	0.37
AGTGACGG	-0.278
ACTTTGCC	-0.0146
AGAGAAAA	-0.176
GTATATAA	0.321
ATTGGACG	-0.148
ATGAGATA	-0.134
TCCGAGGA	0.239
CCCGTCTC	0.181
CCGGTCCG	0.114
GGACTTAC	-0.175
GATTGGCA	-0.139
AGCGTATC	0.0945
CGTAGGCC	-0.0393
GCCCTCGA	-0.259
ACGAGCCT	0.407
CTACCCTC	-0.251
ACCAGCAA	0.101

Sequence	PBM E-score
AGCTAGAC	0.0658
ATGGGTTG	-0.0214
CTAAGCAG	-0.11
GCACCCAA	0.00157
TCAATCCA	0.0336
GCGATCAA	0.114
GTCATGTA	0.00064
AAAGAGAC	-0.126
ATGCATCG	0.126
GAATGTTA	0.00854
AGCGTCCG	0.155
AGTGTGAA	0.00525
AATTTAGG	0.104
ACGGCGAC	0.21
GATGCTAA	0.0979
ACTCCGGC	0.0584
AAGCATAA	-0.13
GACAACTA	-0.0257
ATCGTAGC	0.385
AGAGGCAT	0.0809
AGACATAC	-0.11
CGGATTTA	0.128
CCAGCAAC	0.109
ATACAGTA	0.196
CAGCCGCG	0.0836

Sequence	PBM E-score
CCGGGCAG	0.0493
ACCGTGAC	-0.185
ACTTGACC	-0.149
AAAAATGG	-0.0731
TCCATACA	0.00831
CGTGGTAC	0.172
TATTTCCA	-0.00609
CGGAGCCC	-0.234
AGAAGACA	0.011
AAGCGTTG	-0.0699
AGGAGAGC	0.00382
CTATAGCA	-0.145
CATTCAAG	-0.00794
CTACTTAA	-0.0047
GAGTATGC	0.105
CCTCCGTA	0.262
AGTCCTAG	-0.375
GACACGTA	0.0434
GGCTCACA	-0.154
CATGTCGG	-0.0338
CAGCGTAG	-0.0328
AGCGTCTC	-0.221
AAGGACCG	-0.00277
CATCGAGC	-0.0692
CAGTCGTC	-0.109

Sequence	PBM E-score
GAATGGCC	-0.127
CTCCGGTC	0.174
CCTCCTGA	-0.0935
CACGAACA	0.177
ATGTTTGA	-0.0211
TCCTGGCA	-0.072
CATGTATA	0.0485
CGCCGGGA	0.0127
GCGCTCCC	-0.132
ATGCTGTG	0.039
ATAACGTA	0.267
TAAGAGCA	0.131
GCGAATCA	0.167
ATGAGTGG	-0.127
CCAAGGCC	-0.174
GCTTAGAC	-0.291
CAATAAAG	0.0785
ACGCGCAT	0.0479
CCCCTGGA	-0.247
AAATGATT	0.0314
AGATATCC	0.107
ATGTCAGA	-0.229
TCCGTGAA	0.043
CTACTGGA	-0.265
AGCGAACA	0.198

Sequence	PBM E-score
ACGATCGC	0.327
AGGGACAA	-0.166
ACCCCCTA	-0.244
CACTTGAG	-0.0674
GTAAAGGA	0.081
GACCAGAA	-0.0946
ACCAACCG	0.0945
GCGAGGCC	0.251
ACGAATAA	0.305
GCCGGGCC	-0.0972
GGGCCTTA	-0.262
GTTTCGAA	-0.00209
AGGTCTCG	0.105
TCCTTGCA	-0.0745
AGCCCCCA	-0.377
GTACGAAC	0.475
GCAGAACA	-0.161
GCAGGCGC	-0.113
ATTCGAAC	0.184
GCGCACGC	-0.0289
ACTTACGC	-0.137
CGCCCCCG	-0.129
TGGATGAA	0.025
GTCGGGGA	-0.113
GACTCTGA	-0.24

Sequence	PBM E-score
AAGGCCCC	-0.122
ACGAACAA	0.38
AATTAGGG	-0.208
ACTGTGTC	-0.135
GAAGAATA	-0.00026
GCCACACA	-0.285
CACGCACA	0.152
AGTGTAAC	-0.0676
CGGGGACG	-0.21
ACAATCAC	0.0311
AGGGAGCC	-0.306
CTGGCTAA	-0.21
CAATGGTA	0.0577
ACGAGGCG	0.431
GACAATTA	0.0512
CGGAGTAG	-0.0355
CCGAGGAG	0.219
AGATAGCT	-0.0945
AGTGTTTC	0.0244
TGCTCACA	-0.0876
AGTTGAAC	0.0747
AAGAATAC	0.102
